# In the supplement of paper PMC8728848:
# Some of the results follow.
# B1: Gal 9 (Canis lupus) (protein)
# chain: MAFSSSQPPYLSPGVPFSGKIQGGLQDGLKITINGTILYCNGTRFAVNFHSGHSDSDIAFHFNPRFEEGGYVVCNTKQKGSWGSEERKMQMPFQMGNPFELCFMVNSCDFKVTVNGSHFTQYSHRVPFHYVDTLSITGAVQLSYISFQSPGVWQSSSAPITQTVIHTVQTTPGQPFPNPIIPPTAYPTPTYPMPFFTSIPGGLYPSKSIIVSGTVLPGAKRFHINLRSGNDIAFHLNPRFNENTVVRNMQINNSWGSEERSLPRKMPFVQGQSFSVWIMCEGHCFKVAVDGEHLFEYYHRLKNLLAINNMEVAGDVQLTHVQT
# How the values were obtained:
# Experiment in all cases: glycan array binding signal (z-score within array); higher = stronger binding
# Conditions in all cases: glycan notation: IUPAC condensed, linker removed
# [1] = target: Fuc(a1-2)Gal(b1-4)[Fuc(a1-3)]GlcNAc
# Outline: (§1)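 From the Consortium for Functional Glycomics database, 3228 arrays were curated, keeping only those whose protein sequence was available. Binding is given as a within-array Z-score averaged across arrays sharing a protein sequence and across linkers. Negative Z-scores can be read as non-binding.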
# [2] = target: Fuc(a1-2)Gal(b1-4)[Fuc(a1-3)]GlcNAc(b1-2)Man(a1-3)[Fuc(a1-2)Gal(b1-4)[Fuc(a1-3)]GlcNAc(b1-2)Man(a1-6)]Man(b1-4)GlcNAc(b1-4)GlcNAc
# Outline: as §1
# [3] = target: Fuc(a1-2)Gal(b1-4)[Fuc(a1-3)]GlcNAc(b1-2)[Fuc(a1-2)Gal(b1-4)[Fuc(a1-3)]GlcNAc(b1-4)]Man(a1-3)[Fuc(a1-2)Gal(b1-4)[Fuc(a1-3)]GlcNAc(b1-2)Man(a1-6)]Man(b1-4)GlcNAc(b1-4)GlcNAc
# Outline: as §1
# [4] = target: Fuc(a1-2)Gal(b1-4)[Fuc(a1-3)]GlcNAc(b1-3)Gal(b1-4)[Fuc(a1-3)]GlcNAc
# Outline: as §1
# [5] = target: Fuc(a1-2)Gal(b1-4)[Fuc(a1-3)]GlcNAc(b1-3)Gal(b1-4)[Fuc(a1-3)]GlcNAc(b1-3)Gal(b1-4)[Fuc(a1-3)]GlcNAc
# Outline: as §1
# [6] = target: Fuc(a1-2)Gal(b1-4)[Fuc(a1-3)]GlcNAc(b1-3)GalNAc
# Outline: as §1
# [7] = target: Fuc(a1-2)Gal6S(b1-4)Glc
# Outline: as §1
# [8] = target: Fuc(a1-2)Gal6S(b1-4)Glc6S
# Outline: as §1
# [9] = target: Fuc(a1-2)Gal6S(b1-4)GlcNAc
# Outline: as §1
# [10] = target: Fuc(a1-2)[Gal(a1-3)]Gal
# Outline: as §1
# [11] = target: Fuc(a1-2)[Gal(a1-3)]Gal(b1-3)GalNAc
# Outline: as §1
# [12] = target: Fuc(a1-2)[Gal(a1-3)]Gal(b1-3)GlcNAc
# Outline: as §1
# [13] = target: Fuc(a1-2)[Gal(a1-3)]Gal(b1-3)GlcNAc(b1-2)Man(a1-3)[Fuc(a1-2)[Gal(a1-3)]Gal(b1-3)GlcNAc(b1-2)Man(a1-6)]Man(b1-4)GlcNAc(b1-4)GlcNAc
# Outline: as §1
# [14] = target: Fuc(a1-2)[Gal(a1-3)]Gal(b1-3)GlcNAc(b1-2)Man(a1-3)[Fuc(a1-2)[Gal(a1-3)]Gal(b1-3)GlcNAc(b1-2)Man(a1-6)]Man(b1-4)GlcNAc(b1-4)[Fuc(a1-6)]GlcNAc
# Outline: as §1
# [15] = target: Fuc(a1-2)[Gal(a1-3)]Gal(b1-3)GlcNAc(b1-3)GalNAc
# Outline: as §1
# [16] = target: Fuc(a1-2)[Gal(a1-3)]Gal(b1-4)Glc
# Outline: as §1
# [17] = target: Fuc(a1-2)[Gal(a1-3)]Gal(b1-4)GlcNAc
# Outline: as §1
# [18] = target: Fuc(a1-2)[Gal(a1-3)]Gal(b1-4)GlcNAc(b1-2)Man(a1-3)[Fuc(a1-2)[Gal(a1-3)]Gal(b1-4)GlcNAc(b1-2)Man(a1-6)]Man(b1-4)GlcNAc(b1-4)GlcNAc
# Outline: as §1
# [19] = target: Fuc(a1-2)[Gal(a1-3)]Gal(b1-4)GlcNAc(b1-2)Man(a1-3)[Fuc(a1-2)[Gal(a1-3)]Gal(b1-4)GlcNAc(b1-2)Man(a1-6)]Man(b1-4)GlcNAc(b1-4)[Fuc(a1-6)]GlcNAc
# Outline: as §1
# [20] = target: Fuc(a1-2)[Gal(a1-3)]Gal(b1-4)GlcNAc(b1-3)GalNAc
# Outline: as §1
# [21] = target: Fuc(a1-2)[Gal(a1-3)]Gal(b1-4)[Fuc(a1-3)]Glc
# Outline: as §1
# [22] = target: Fuc(a1-2)[Gal(a1-3)]Gal(b1-4)[Fuc(a1-3)]GlcNAc
# Outline: as §1
# [23] = target: Fuc(a1-2)[Gal(a1-3)]Gal(b1-4)[Fuc(a1-3)]GlcNAc(b1-3)GalNAc
# Outline: as §1
# [24] = target: Fuc(a1-2)[Gal(a1-4)]Gal(b1-4)GlcNAc
# Outline: as §1
# [25] = target: Fuc(a1-2)[GalNAc(a1-3)]Gal
# Outline: as §1
# [26] = target: Fuc(a1-2)[GalNAc(a1-3)]Gal(b1-3)GalNAc(a1-3)[Fuc(a1-2)]Gal(b1-4)GlcNAc
# Outline: as §1
# [27] = target: Fuc(a1-2)[GalNAc(a1-3)]Gal(b1-3)GlcNAc
# Outline: as §1
# [28] = target: Fuc(a1-2)[GalNAc(a1-3)]Gal(b1-3)GlcNAc(b1-2)Man(a1-3)[Fuc(a1-2)[GalNAc(a1-3)]Gal(b1-3)GlcNAc(b1-2)Man(a1-6)]Man(b1-4)GlcNAc(b1-4)GlcNAc
# Outline: as §1
# [29] = target: Fuc(a1-2)[GalNAc(a1-3)]Gal(b1-3)GlcNAc(b1-2)Man(a1-3)[Fuc(a1-2)[GalNAc(a1-3)]Gal(b1-3)GlcNAc(b1-2)Man(a1-6)]Man(b1-4)GlcNAc(b1-4)[Fuc(a1-6)]GlcNAc
# Outline: as §1
# [30] = target: Fuc(a1-2)[GalNAc(a1-3)]Gal(b1-3)GlcNAc(b1-3)GalNAc
# Outline: as §1
binder,measurement,setting,value
B1,glycan array binding signal (z-score),[1],-0.338
same,glycan array binding signal (z-score),[2],-0.296
same,glycan array binding signal (z-score),[3],-0.226
same,glycan array binding signal (z-score),[4],-0.344
same,glycan array binding signal (z-score),[5],-0.321
same,glycan array binding signal (z-score),[6],-0.26
same,glycan array binding signal (z-score),[7],-0.303
same,glycan array binding signal (z-score),[8],-0.345
same,glycan array binding signal (z-score),[9],-0.354
same,glycan array binding signal (z-score),[10],-0.34
same,glycan array binding signal (z-score),[11],0.202
same,glycan array binding signal (z-score),[12],0.302
same,glycan array binding signal (z-score),[13],0.321
same,glycan array binding signal (z-score),[14],-0.04
same,glycan array binding signal (z-score),[15],0.159
same,glycan array binding signal (z-score),[16],0.163
same,glycan array binding signal (z-score),[17],0.159
same,glycan array binding signal (z-score),[18],1.83
same,glycan array binding signal (z-score),[19],0.172
same,glycan array binding signal (z-score),[20],-0.033
same,glycan array binding signal (z-score),[21],-0.343
same,glycan array binding signal (z-score),[22],-0.332
same,glycan array binding signal (z-score),[23],-0.323
same,glycan array binding signal (z-score),[24],-0.339
same,glycan array binding signal (z-score),[25],-0.346
same,glycan array binding signal (z-score),[26],0.237
same,glycan array binding signal (z-score),[27],1.02
same,glycan array binding signal (z-score),[28],1.17
same,glycan array binding signal (z-score),[29],0.16
same,glycan array binding signal (z-score),[30],0.206
